MIC of invasive clinical C. tropicalis isolates, CLSI broth microdilution (fluconazole 0.12-256 mg/L, up to 1,024 for the azole-resistant cluster and its neighbour group; other ranges not stated); higher = less susceptible. Call: susceptible or wild type [S] / resistant or non-wild type [R] by CLSI breakpoints or cut-offs; intermediate and dose-dependent carry no call. '<=' and '>=' at the end values are inferred; the source marks only some of them. Isolates are numbered anew.
Experiments:
Assay in all cases: CLSI broth microdilution.
posaconazole = compound: CC[C@@H]([C@H](C)O)n1ncn(-c2ccc(N3CCN(c4ccc(OC[C@@H]5CO[C@@](Cn6cncn6)(c6ccc(F)cc6F)C5)cc4)CC3)cc2)c1=O [posaconazole]
flucytosine = compound: Nc1[nH]c(=O)ncc1F [flucytosine]
itraconazole = compound: CCC(C)n1ncn(-c2ccc(N3CCN(c4ccc(OCC5COC(Cn6cncn6)(c6ccc(Cl)cc6Cl)O5)cc4)CC3)cc2)c1=O [itraconazole]
caspofungin = compound: CC[C@H](C)C[C@H](C)CCCCCCCCC(=O)N[C@H]1C[C@@H](O)[C@@H](NCCN)NC(=O)[C@@H]2[C@@H](O)CCN2C(=O)[C@H]([C@H](O)CCN)NC(=O)[C@H]([C@H](O)[C@@H](O)c2ccc(O)cc2)NC(=O)[C@@H]2C[C@@H](O)CN2C(=O)[C@H]([C@@H](C)O)NC1=O [caspofungin]
anidulafungin = compound: CCCCCOc1ccc(-c2ccc(-c3ccc(C(=O)N[C@H]4C[C@@H](O)[C@@H](O)NC(=O)[C@@H]5[C@@H](O)[C@@H](C)CN5C(=O)[C@H]([C@@H](C)O)NC(=O)[C@H]([C@H](O)[C@@H](O)c5ccc(O)cc5)NC(=O)[C@@H]5C[C@@H](O)CN5C(=O)[C@H]([C@@H](C)O)NC4=O)cc3)cc2)cc1 [anidulafungin]
voriconazole = compound: C[C@@H](c1ncncc1F)[C@](O)(Cn1cncn1)c1ccc(F)cc1F [voriconazole]
fluconazole = compound: OC(Cn1cncn1)(Cn1cncn1)c1ccc(F)cc1F [fluconazole]
amphotericin B = compound: C[C@@H]1[C@H](O)[C@@H](C)/C=C/C=C/C=C/C=C/C=C/C=C/C=C/[C@H](O[C@@H]2O[C@H](C)[C@@H](O)[C@H](N)[C@@H]2O)C[C@@H]2O[C@](O)(C[C@@H](O)C[C@@H](O)[C@H](O)CC[C@@H](O)C[C@@H](O)CC(=O)O[C@H]1C)C[C@H](O)[C@H]2C(=O)O [amphotericin B]
micafungin = compound: CCCCCOc1ccc(-c2cc(-c3ccc(C(=O)N[C@H]4C[C@@H](O)[C@@H](O)NC(=O)[C@@H]5[C@@H](O)[C@@H](C)CN5C(=O)[C@H]([C@H](O)CC(N)=O)NC(=O)[C@H]([C@H](O)[C@@H](O)c5ccc(O)c(OS(=O)(=O)O)c5)NC(=O)[C@@H]5C[C@@H](O)CN5C(=O)[C@H]([C@@H](C)O)NC4=O)cc3)no2)cc1 [micafungin]

| Test System | MIC (posaconazole) | MIC (flucytosine) | MIC (itraconazole) | MIC (caspofungin) | MIC (anidulafungin) | MIC (voriconazole) | MIC (fluconazole) | MIC (amphotericin B) | MIC (micafungin) |
| --- | --- | --- | --- | --- | --- | --- | --- | --- | --- |
| Candida tropicalis isolate 69 (ERG11 copies: 2, Erg11p: no key change) | 0.06 mg/L [S] | ≤ 0.06 mg/L [S] | 0.12 mg/L [S] | 0.03 mg/L [S] | 0.03 mg/L [S] | 0.06 mg/L [S] | 1 mg/L [S] | 0.25 mg/L [S] | 0.03 mg/L [S] |
| Candida tropicalis isolate 70 (ERG11 copies: 7, Erg11p: Y132F, S154F (heterozygous)) | 1 mg/L [R] | ≤ 0.06 mg/L [S] | 1 mg/L [R] | 0.03 mg/L [S] | ≤ 0.015 mg/L [S] | ≥ 8 mg/L [R] | 256 mg/L [R] | 1 mg/L [S] | 0.03 mg/L [S] |
| Candida tropicalis isolate 71 (ERG11 copies: 2, Erg11p: no key change) | 0.5 mg/L [R] | ≤ 0.06 mg/L [S] | 0.5 mg/L [S] | 0.015 mg/L [S] | ≤ 0.015 mg/L [S] | 0.5 mg/L | 4 mg/L | 1 mg/L [S] | 0.03 mg/L [S] |
| Candida tropicalis isolate 72 (ERG11 copies: 2, Erg11p: no key change) | 0.5 mg/L [R] | ≤ 0.06 mg/L [S] | 0.5 mg/L [S] | 0.03 mg/L [S] | ≤ 0.015 mg/L [S] | 0.5 mg/L | 4 mg/L | 1 mg/L [S] | 0.03 mg/L [S] |
| Candida tropicalis isolate 73 (ERG11 copies: 2, Erg11p: no key change) | 0.25 mg/L [S] | 0.12 mg/L [S] | 0.12 mg/L [S] | 0.03 mg/L [S] | 0.03 mg/L [S] | 0.06 mg/L [S] | 1 mg/L [S] | 1 mg/L [S] | 0.03 mg/L [S] |
| Candida tropicalis isolate 74 (ERG11 copies: 2, Erg11p: no key change) | 0.12 mg/L [S] | ≤ 0.06 mg/L [S] | 0.12 mg/L [S] | 0.03 mg/L [S] | 0.03 mg/L [S] | 0.06 mg/L [S] | 1 mg/L [S] | 1 mg/L [S] | 0.03 mg/L [S] |
| Candida tropicalis isolate 75 (ERG11 copies: 2, Erg11p: no key change) | 0.25 mg/L [S] | ≤ 0.06 mg/L [S] | 0.25 mg/L [S] | 0.06 mg/L [S] | 0.12 mg/L [S] | 0.12 mg/L [S] | 2 mg/L [S] | 1 mg/L [S] | 0.03 mg/L [S] |
| Candida tropicalis isolate 76 (ERG11 copies: 8, Erg11p: Y132F, S154F (heterozygous)) | 1 mg/L [R] | ≤ 0.06 mg/L [S] | 0.5 mg/L [S] | 0.12 mg/L [S] | 0.12 mg/L [S] | ≥ 8 mg/L [R] | 256 mg/L [R] | 0.5 mg/L [S] | 0.06 mg/L [S] |
| Candida tropicalis isolate 77 (ERG11 copies: 7, Erg11p: Y132F, S154F (heterozygous)) | 1 mg/L [R] | ≤ 0.06 mg/L [S] | 0.5 mg/L [S] | 0.03 mg/L [S] | 0.12 mg/L [S] | ≥ 8 mg/L [R] | 512 mg/L [R] | 0.5 mg/L [S] | 0.06 mg/L [S] |
| Candida tropicalis isolate 78 (ERG11 copies: 8, Erg11p: Y132F, S154F (heterozygous)) | 1 mg/L [R] | ≤ 0.06 mg/L [S] | 1 mg/L [R] | 0.03 mg/L [S] | 0.03 mg/L [S] | ≥ 8 mg/L [R] | 256 mg/L [R] | 1 mg/L [S] | 0.03 mg/L [S] |
| Candida tropicalis isolate 79 (ERG11 copies: 2, Erg11p: no key change) | 0.06 mg/L [S] | ≤ 0.06 mg/L [S] | 0.12 mg/L [S] | 0.5 mg/L | 1 mg/L [R] | 0.015 mg/L [S] | 1 mg/L [S] | 2 mg/L [S] | 1 mg/L [R] |
| Candida tropicalis isolate 80 (ERG11 copies: 2, Erg11p: no key change) | 0.25 mg/L [S] | ≤ 0.06 mg/L [S] | 0.25 mg/L [S] | 0.06 mg/L [S] | 0.12 mg/L [S] | 0.12 mg/L [S] | 2 mg/L [S] | 1 mg/L [S] | 0.03 mg/L [S] |
| Candida tropicalis isolate 81 (ERG11 copies: 2, Erg11p: no key change) | 0.5 mg/L [R] | ≤ 0.06 mg/L [S] | 0.25 mg/L [S] | 0.03 mg/L [S] | ≤ 0.015 mg/L [S] | 0.12 mg/L [S] | 2 mg/L [S] | 1 mg/L [S] | 0.03 mg/L [S] |
| Candida tropicalis isolate 82 (ERG11 copies: 2, Erg11p: no key change) | 0.25 mg/L [S] | ≤ 0.06 mg/L [S] | 0.25 mg/L [S] | 0.03 mg/L [S] | ≤ 0.015 mg/L [S] | 0.12 mg/L [S] | 2 mg/L [S] | 0.5 mg/L [S] | 0.015 mg/L [S] |
| Candida tropicalis isolate 83 (ERG11 copies: 2, Erg11p: no key change) | 0.25 mg/L [S] | ≤ 0.06 mg/L [S] | 0.25 mg/L [S] | 0.03 mg/L [S] | ≤ 0.015 mg/L [S] | 0.06 mg/L [S] | 1 mg/L [S] | 0.5 mg/L [S] | 0.015 mg/L [S] |
| Candida tropicalis isolate 84 (ERG11 copies: 12, Erg11p: Y132F, S154F (homozygous)) | 1 mg/L [R] | ≤ 0.06 mg/L [S] | 1 mg/L [R] | 0.06 mg/L [S] | 0.25 mg/L [S] | ≥ 8 mg/L [R] | 512 mg/L [R] | 0.5 mg/L [S] | 0.06 mg/L [S] |
| Candida tropicalis isolate 85 (ERG11 copies: 2, Erg11p: no key change) | 0.5 mg/L [R] | ≤ 0.06 mg/L [S] | 0.5 mg/L [S] | 0.03 mg/L [S] | 0.03 mg/L [S] | 0.5 mg/L | 4 mg/L | 1 mg/L [S] | 0.03 mg/L [S] |
| Candida tropicalis isolate 86 (ERG11 copies: 2, Erg11p: no key change) | 0.12 mg/L [S] | ≤ 0.06 mg/L [S] | 0.12 mg/L [S] | 0.03 mg/L [S] | 0.03 mg/L [S] | 0.06 mg/L [S] | 1 mg/L [S] | 0.5 mg/L [S] | 0.03 mg/L [S] |

Reference: the supplement of paper PMC10724272
